# Screen size: about 310,000 compounds; about 2,200 (0.71%) showed an effect of 50% or more. Effects have a minus sign here. The list shows a part of the results.
# Target: human ether-à-go-go-related gene (hERG) potassium channel (human, UniProt Q12809)
# Assay: primary screen, population patch clamp on CHO cells stably expressing hERG
# Sequence of human ether-à-go-go-related gene (hERG) potassium channel (Q12809 whole entry, looked up): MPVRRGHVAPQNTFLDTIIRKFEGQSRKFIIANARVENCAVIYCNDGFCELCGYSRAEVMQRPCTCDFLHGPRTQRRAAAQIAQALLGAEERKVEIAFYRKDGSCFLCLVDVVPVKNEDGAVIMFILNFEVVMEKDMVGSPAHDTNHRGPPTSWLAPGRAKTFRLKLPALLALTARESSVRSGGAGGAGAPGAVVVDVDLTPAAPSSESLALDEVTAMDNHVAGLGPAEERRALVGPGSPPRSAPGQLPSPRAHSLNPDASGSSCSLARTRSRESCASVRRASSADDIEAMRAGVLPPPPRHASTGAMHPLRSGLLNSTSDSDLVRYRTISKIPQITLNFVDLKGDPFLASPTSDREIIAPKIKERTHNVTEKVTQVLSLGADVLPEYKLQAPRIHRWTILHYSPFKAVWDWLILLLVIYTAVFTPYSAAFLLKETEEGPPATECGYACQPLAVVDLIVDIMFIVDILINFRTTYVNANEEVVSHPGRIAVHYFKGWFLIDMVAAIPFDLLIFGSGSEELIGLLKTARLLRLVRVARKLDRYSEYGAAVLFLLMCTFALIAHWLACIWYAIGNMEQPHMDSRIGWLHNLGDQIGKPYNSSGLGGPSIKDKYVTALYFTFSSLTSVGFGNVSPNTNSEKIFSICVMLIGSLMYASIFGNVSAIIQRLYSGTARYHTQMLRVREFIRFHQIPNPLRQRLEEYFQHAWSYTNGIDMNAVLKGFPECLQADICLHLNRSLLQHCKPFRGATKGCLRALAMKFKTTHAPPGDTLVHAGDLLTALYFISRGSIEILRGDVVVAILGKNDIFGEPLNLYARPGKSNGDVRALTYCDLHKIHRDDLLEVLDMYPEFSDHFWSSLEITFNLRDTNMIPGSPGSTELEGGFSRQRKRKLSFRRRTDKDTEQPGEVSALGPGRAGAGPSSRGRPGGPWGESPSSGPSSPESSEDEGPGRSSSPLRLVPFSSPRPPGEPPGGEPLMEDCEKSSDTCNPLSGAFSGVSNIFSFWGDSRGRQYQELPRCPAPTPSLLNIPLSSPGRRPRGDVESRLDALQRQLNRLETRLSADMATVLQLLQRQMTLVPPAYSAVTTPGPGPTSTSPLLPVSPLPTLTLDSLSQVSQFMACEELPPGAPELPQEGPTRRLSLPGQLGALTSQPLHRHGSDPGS
row,SMILES,"hERG current change (%, negative = inhibition) at 1uM"
1,CCN(CC)CCN=Cc1c(O)n(Cc2ccccc2)c(=O)[nH]c1=O [14739636],-3.04%
2,Cc1cnc(NC(=O)c2ccc3c(c2)C(=O)N(Cc2ccco2)C3=O)s1,-6.71%
3,Cc1ccc(NC(=O)/C(=C\c2ccco2)NC(=O)c2ccco2)cc1,8.86%
4,COc1ccc(C2Nc3ccccc3C(=O)N2Cc2ccccc2)cc1Cn1nnc2ccccc21 (stereo not shown),2.21%
5,CC(C)c1cc(=O)oc2c3c4c(cc12)CCCN4CCC3,2.01%
6,Cl.OC(COCc1ccccc1)CN1CCCCC1 (stereo not shown),11.8%
7,CCn1c(SCC(=O)Nc2cc(C)on2)nnc1-c1ccc(OC)cc1,3.87%
8,CCOC(=O)CC(NC(=O)c1cc2cccc(OC)c2oc1=O)c1ccc(OC)cc1 (stereo not shown),13.4%
9,NS(=O)(=O)c1ccc(CNC(=S)NCc2ccc(F)cc2)cc1,10.1%
10,CCSc1nc(C)cc(C)c1S(=O)(=O)c1ccccc1C,6.91%
11,COc1ccccc1CNC(=O)CCCOc1cc(=O)n(C)c2ccccc12,24.8%
12,CCOC(=O)c1sc(=S)n(CC)c1NC(=O)C1CC1,9%
13,CN(C)/C=N/c1nc2nccc(-c3ccccn3)n2n1,10.3%
14,CC(=O)N1CCC(C(=O)OCc2ccc(Cl)cc2)(c2ccccc2)CC1,19.1%
15,COc1cc(C(=O)NCC(=O)OC(C)C(=O)Nc2ncc(Cl)cc2Cl)cc(OC)c1OC (stereo not shown),13%
16,C=CCn1c(SCC(=O)c2ccc(OC)cc2)nnc1-c1ccc2c(c1)OCO2,4.12%
17,O=C(O)c1cccc(C(=O)O)c1,16.1%
18,Cc1nc2ccc(N=NN(C)C)cc2[nH]1,9.55%
19,O=C(CCn1c(=O)[nH]c2ccccc2c1=O)N1CCN(c2ccc(Cl)cc2)CC1,-4.13%
20,O=C(O)c1ccc(N2Cc3ccccc3C2)cc1O,6.71%

row,SMILES,"hERG current change (%, negative = inhibition) at 1uM"
1,CCC1(c2ccccc2)C(=O)N(C)C(=O)N(C)C1=O,15.3%
2,CC(C)c1ccc(/C=N/NC(=O)c2ccccc2Cl)cc1,7.12%
3,CN1CCN(C(=O)CSc2cc(=O)n(C)c3ccccc23)CC1,10.7%
4,O=C(NC1CCCCC1)[C@@H]1CSC2c3ccccc3C(=O)N21 (stereo partly shown),13.3%
5,C/C(=N/NC(=O)C1CC1(c1ccccc1)c1ccccc1)c1cccs1 (stereo not shown),16.2%
6,O=C(COc1coc(CN2CCN(c3ccccc3)CC2)cc1=O)N1CCc2ccccc21,-0.178%
7,N#CCCN(C(=O)COC(=O)CCc1nc2ccccc2c(=O)[nH]1)c1ccccc1F,9.76%
8,CCCN(CC1CC1)C(=O)COC(=O)c1oc2c(F)cccc2c1C,-14.9%
9,CC(C)(C)c1ccc(S(=O)(=O)CCc2ccccn2)cc1,6.35%
10,COc1ccccc1NC(=O)c1cn(C)c(=O)c2cc(OC)c(OC)cc12,8.43%
11,CN(CCC#N)C(=O)COC(=O)c1ccc(Cl)c(S(N)(=O)=O)c1,17.9%
12,CC(=O)c1ccccc1NC(=O)COC(=O)c1c(C)nn(-c2ccccc2)c1C,13.6%
13,NS(=O)(=O)c1ccc(CCNC(=O)CSCC(=O)Nc2ccc(Cl)cc2)cc1,14.6%
14,CCNS(=O)(=O)c1ccc(CCC(=O)Nc2ccc3c(c2)OCCO3)cc1,23%
15,COCc1nnc(NC(=O)c2ccc(S(=O)(=O)N(C)Cc3ccccc3)cc2)o1,18.4%
16,CCOC(=O)CSc1nc(N2CCOCC2)c2c(c1C#N)CC(C(C)C)OC2 (stereo not shown),-31.3%
17,C=C1C(O)C[C@H]2C(=C)CCC3[C@H](OC(=O)[C@]3(O)CO)[C@@H]12 (stereo partly shown),22.6%
18,CCn1c(C)nc([N+](=O)[O-])c1C(=O)O,7.93%
19,Cc1nn(S(=O)(=O)c2ccc(Br)cc2)c(C)c1S(=O)(=O)N1CCOCC1,6.19%
20,COc1ccc(C(=O)COC(=O)CCNS(=O)(=O)c2ccccc2)c(OC)c1,-0.37%

row,SMILES,"hERG current change (%, negative = inhibition) at 1uM"
1,CCCS(=O)(=O)N1CCCC(C(=O)NCCN(Cc2ccccc2)C(C)C)C1 (stereo not shown),-5.65%
2,COc1ccc(N2CCN(S(=O)(=O)c3cc(Br)cnc3N)CC2)cc1,17.7%
3,CC(=O)Nc1nnc(SCC(=O)Nc2ccc(N3CCOCC3)c(Cl)c2)s1,9.99%
4,CC(=O)Nc1ccc2nc(-c3cccs3)[nH]c2c1,11.4%
5,CCN(CC)S(=O)(=O)c1ccc2c3c(cccc13)C(=O)S2,-18.3%
6,CCCCN1C(=O)C(O)=C(C(C)=O)C1c1ccccc1 (stereo not shown),14.8%
7,CCn1c2ccccc2c2nc3cc(OC)c(OC)cc3nc21,13.1%
8,Cc1cc(C)nc(Nc2ccc(O)cc2)n1,-1.88%
9,O=C(Nc1cccc(Cl)c1N1CCOCC1)c1ccc([N+](=O)[O-])o1,3.63%
10,O=C(NCCCN1CCOCC1)[C@@H]1CSC2c3ccccc3C(=O)N21 (stereo partly shown),6.76%
11,Cc1ccc(C(=O)N2CCNC(=O)C2CC(=O)Nc2ccccc2)cc1 (stereo not shown),13.4%
12,C=CCn1c(SCC(=O)Nc2nccs2)nnc1-c1cc2cccc(OC)c2o1,5.69%
13,CSc1ncccc1C(=O)OCC(=O)C(C)(C)C,5.07%
14,CCN(CC)C(=O)c1ccc(Nc2nnc(C)c3ccccc23)cc1,2.07%
15,CC(C)(C)OC(=O)NCCCC[C@@H](C(=O)N1CCN(C(=O)OC(C)(C)C)CC1)n1cc(C(CO)NC(=O)OC(C)(C)C)nn1 (stereo partly shown),21%
16,O=c1cc(C2CCNCC2)[nH][nH]1,3.78%
17,Cc1nc2ccccc2c(=O)n1-c1ccccn1,12.6%
18,COc1cc(NC(=O)CN(C)S(=O)(=O)c2ccc(-c3ccc(=O)[nH]n3)s2)cc(OC)c1,3.04%
